For one compound, GI50 and TGI results are on record in PubChem BioAssay (NCI).

This assay concerns NCI-H322M lung. Kind of assay: NCI anticancer screen, dose series, 48 h.

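Step 1: Grow cells in 96-well plates. Step 2: Expose to compound for 48 hours at 5 concentrations. Step 3: Interpolate endpoints linearly; if unreached, use highest concentration. Here, GI50 denotes the concentration required for 50% inhibition of growth. The concentration for full growth arrest is given as TGI.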

Take `CS(=O)(=O)Nc1cc(-c2ccc3ncc(C#N)c(NCc4ccccc4F)c3c2)cnc1Cl`: the GI50 was 0.402 µM and the TGI amounted to 10.4 µM.
